# Test results published in PubChem BioAssay AID1346428 (National Center for Advancing Translational Sciences (NCATS), 2018).
# The campaign covered roughly 48,000 compounds. About 1,200 (2.5%) were called active. Roughly 2% stayed inconclusive and do not appear here.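 The calls were made as follows: active = activation of at least 60% and not above a set upper limit (about 1 call in 100 departs from these limits); inconclusive = activation of 40% to 60%, or above that upper limit; inactive = activation under 40%.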 Some of the results follow.
# Molecular target: Probable G-protein coupled receptor 32 (Homo sapiens) (UniProt O75388)
# Chain of UniProt O75388 (O75388 whole entry, looked up): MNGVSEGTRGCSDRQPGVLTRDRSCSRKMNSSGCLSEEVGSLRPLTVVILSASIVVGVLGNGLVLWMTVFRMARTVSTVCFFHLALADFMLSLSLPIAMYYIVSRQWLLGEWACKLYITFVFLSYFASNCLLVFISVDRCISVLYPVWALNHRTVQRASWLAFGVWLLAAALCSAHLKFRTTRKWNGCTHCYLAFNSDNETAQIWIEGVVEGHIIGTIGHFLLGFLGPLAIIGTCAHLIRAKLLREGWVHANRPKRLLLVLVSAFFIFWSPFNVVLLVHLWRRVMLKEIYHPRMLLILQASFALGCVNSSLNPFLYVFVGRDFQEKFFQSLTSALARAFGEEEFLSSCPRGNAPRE
# Test: qHTS for Agonists of Human Resolvin D1 Receptor DRV1; also: 0% is about no effect
# Details: CHO-K1 GPR32 beta-arrestin PathHunter luminescence, 90 min; at 76.9 µM; stronger effect = higher value; zero percent set by DMSO-only wells
# Procedure, shortened: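 Agonism was scored by beta-Gal fragment complementation (chemiluminescent read, 1 h detection at ambient temperature) reporting beta-arrestin binding to GPR32 in engineered CHO-K1 cells. Compound treatment lasted 90 min at 37 C, normalized to a DMSO basal control.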
row,Structure (SMILES),activation
1,Cn1c(=O)c2cc(C(=O)NCCCN3CCN(c4ccccc4F)CC3)sc2c2ccccc21,inactive: -0.668%
2,Cc1ccc(-n2c(=O)c3ccc(C(=O)NCc4ccco4)cc3n(Cc3ccccc3C#N)c2=O)cc1,inactive: -73.5%
3,CCOc1ccc(C2CC(=O)N(c3cccc(F)c3)C3=C2C(=O)OC3)cc1 (stereo not drawn),inactive: -5.8%
4,Cc1ccc(-n2nc3c(=O)n(CCCC(=O)NCCc4ccccc4Cl)nc(C)c3c2C)cc1,inactive: -18.6%
5,CCN(CC)c1cc2c(cc1F)c(=O)c(S(=O)(=O)c1cccc(C)c1)cn2C,inactive: -11.7%
6,Cc1ccc(-c2cn(-c3cccc(Cl)c3)c(S(=O)(=O)CC(=O)Nc3ccccc3F)n2)cc1,inactive: -2%
7,COc1ccc(NC(=O)c2ccc3c(c2)sc2nc(-c4ccc(OC)cc4)cn23)cc1,inactive: -3.9%
8,Cc1ccc(NC(=O)Cn2c(=O)n(Cc3ccco3)c(=O)c3ccccc32)c(C)c1,inactive: -5.02%
9,Cc1cccc(NC(=O)CSc2nc3ccccc3nc2N2CCOCC2)c1C,inactive: 1.22%
10,CCOc1ccc(CNS(=O)(=O)c2cc3c(cc2C)NC(=O)CO3)cc1,inactive: -11.6%
11,CC(=O)c1ccc(N2CCN(C(=O)CCCCn3c(=O)[nH]c4ccsc4c3=O)CC2)cc1,inactive: 27.1%
12,COc1ccc(Cn2c(=O)c3cccnc3n(CC(=O)Nc3c(C)cc(C)cc3C)c2=O)cc1,inactive: -5.41%
13,CCc1cnc2c(c1SCC(=O)c1ccc(Cl)cc1)c(=O)n(C)c(=O)n2C,inactive: -7.57%
14,CCOC(=O)c1c(-c2ccc(OC)cc2)oc2ccc(OCc3ccc(Br)cc3)cc12,inactive: 12.1%
15,O=C(Nc1cccc(C(F)(F)F)c1)c1cc(-c2ccc3c(c2)OCCO3)on1,active: 94%
16,CCSc1nnc(NC(=O)c2cc(=O)c3cc(C)c(C)cc3o2)s1,inactive: -15.4%
17,COc1ccc(S(=O)(=O)n2nc(C)c(S(=O)(=O)N3CCC(C)CC3)c2C)cc1OC,inactive: 0.353%
18,Cc1ccc(N(CC(=O)Nc2ccc(Br)cc2)S(=O)(=O)c2cccs2)cc1,inactive: 36.1%
19,CCc1ccccc1NC(=O)c1ccc2nc(C(C)C)oc2c1,inactive: -5.99%
20,O=C(NCCc1ccc(F)cc1)C(=O)NCC(c1ccco1)S(=O)(=O)c1cccs1 (stereo not drawn),inactive: -5.11%
21,CC(C)CCNC(=O)CCC(=O)NNc1nc2ccccc2c2nc(-c3ccccc3)nn12,inactive: -7.75%

row,Structure (SMILES),activation
1,COc1cc(OC)cc(C(=O)N2CC(=O)Nc3ccc(Cl)cc3C2c2ccccc2)c1 (stereo not drawn),inactive: -6.95%
2,O=C(Nc1nnc2n1CCS2)c1ccccc1C(F)(F)F,inactive: -60.3%
3,O=C(Nc1ccc(Cl)c(C(F)(F)F)c1)C(Cc1ccccc1)NS(=O)(=O)c1ccc(Br)s1 (stereo not drawn),inactive: 26.6%
4,Brc1cccc(-c2cnn3c(-c4ccccc4)cc(-c4ccccc4)nc23)c1,inactive: -19.8%
5,COc1ccc(C2=C(C)C(N3CCC(C(=O)Nc4ccc(F)cc4C)CC3)=NS2(=O)=O)cc1,inactive: 40.8%
6,COc1cccc(C(=O)NCC(c2ccc3c(c2)OCO3)N2CCOCC2)c1 (stereo not drawn),inactive: -20.1%
7,CCOc1ccc(NC(=O)C(=O)NCc2ccco2)cc1,inactive: 4.5%
8,O=C(NCc1ccccc1)C(=O)NCC(c1cccs1)S(=O)(=O)c1ccccc1 (stereo not drawn),inactive: -7.77%
9,C[N+](C)(CCCCCC[N+](C)(C)CCCN1C(=O)c2cccc3cccc(c23)C1=O)CCCN1C(=O)c2cccc3cccc(c23)C1=O,inactive: -11.6%
10,COc1ccc2cc3cc(C(=O)NCc4ccccc4OC)oc3nc2c1,inactive: 4.18%
11,CC1(C)CC(=O)c2cc(C(=O)Nc3ccccc3Cl)c(=O)n(-c3ccc(Cl)cc3)c2C1,inactive: -8.04%
12,CCc1nonc1NC(=O)c1oc2ccc(F)cc2c1C,inactive: 7.67%
13,CN(C)c1ccc(CNC(=O)C2CCCN(S(=O)(=O)c3ccc4c(c3)oc(=O)n4C)C2)cc1 (stereo not drawn),inactive: 19.9%
14,COc1ccc(CCNC(=O)C(=O)NCC(c2ccc3c(c2)OCO3)N2CCOCC2)cc1 (stereo not drawn),inactive: -20%
15,CC1=C(C(=O)Nc2ccc(Cl)cc2)C(c2ccccc2C)n2ncc(C(=O)Nc3ccc(C)cc3)c2N1 (stereo not drawn),inactive: -21.5%
16,Cc1cccc(OCC(=O)NC(Cc2c[nH]c3ccccc23)C(=O)O)c1C (stereo not drawn),inactive: 9.01%
17,COc1ccc(-n2cc(-c3ccccc3)c3c(NC4CCCCC4)ncnc32)cc1,inactive: -33.4%
18,O=C(Nc1cc(F)ccc1F)N1CCC(CN2CCOCC2)CC1,inactive: -9.37%
19,Cc1cc(OCCOCC[N+](C)(C)Cc2ccccc2)ccc1C(C)(C)CC(C)(C)C,inactive: 6.35%
20,Cc1cccc(OCCCCn2c(C3CC(=O)N(c4ccccc4Cl)C3)nc3ccccc32)c1 (stereo not drawn),inactive: -9.76%
21,Cn1c(=O)n(C/C=C/c2ccccc2)c(=O)c2c1nc1n2CCN1c1ccc(F)cc1,inactive: -6.74%

row,Structure (SMILES),activation
1,COc1ccc(S(=O)(=O)NCCc2sc(C)nc2C)cc1F,inactive: 11.4%
2,CCOC(=O)C1=C(C)NC(C)=C(C(=O)OCC)C1c1ccccc1/C=C/C(=O)OC(C)(C)C,inactive: -6.83%
3,Cc1ccc2c(CC(=O)Nc3cccc(Cl)c3C)coc2c1,inactive: 3.16%
4,Cc1ccc(-c2nc3cc(NC(=O)c4cc5ccccc5o4)ccc3o2)cc1,inactive: 0.99%
5,CCN1C(=O)c2ccccc2Sc2ccc(NC(=O)COc3ccc(Cl)cc3)cc21,inactive: -1.01%
6,CN1CCN(c2ncc3c(n2)CCN(Cc2cc(Br)cs2)C3)CC1,inactive: -33.3%
7,CCOc1ccc(-c2cnc(NCc3ccc(C(F)(F)F)cc3)n2C)cc1,inactive: -58.5%
8,CCOc1ccc(-n2c(SCC(=O)Nc3cccc(Cl)c3)nc3c(oc4ccccc43)c2=O)cc1,inactive: -4.58%
9,COc1ccc(C(=O)CC2(O)C(=O)Nc3c(C)cccc32)c(OC)c1OC (stereo not drawn),inactive: -13.3%
10,O=C(c1ccc(C(F)(F)F)cc1)N1CCC(c2noc(-c3ccc(S(=O)(=O)N4CCCC4)cc3)n2)CC1,inactive: -2.37%
11,O=C(c1cccs1)N(Cc1cccnc1)c1nc2c(Cl)cccc2s1,inactive: -23.4%
12,NC(=O)c1ccccc1NC(=O)C1CCCN(c2ncnc3onc(-c4ccc(F)cc4)c23)C1 (stereo not drawn),inactive: -2.39%
13,O=C(CCc1nc2cccnc2n1Cc1cccs1)Nc1cccc(C(F)(F)F)c1,inactive: -2.98%
14,Cc1ccccc1Cn1c(=O)n(Cc2ccc3c(c2)OCO3)c(=O)c2oc3ccccc3c21,inactive: -0.434%
15,O=C(NC1CCCC1)c1ccc2c(c1)N(Cc1ccc(C(F)(F)F)cc1)C(=O)c1ccccc1S2,inactive: 16.3%
16,CN(C)C(=O)c1ccc(NC(=O)Cn2nnnc2-c2ccccc2F)cc1,inactive: 3.92%
17,COc1ccc(-c2noc(CCC(=O)N(C)c3ccccc3C)n2)cc1,active: 107%
18,COCCCNS(=O)(=O)c1cc(-c2onc(C)c2C)ccc1OC,inactive: -7.83%
19,COc1ccc(N2CCN(C(=O)CSc3n[nH]c(-c4ccccc4)n3)CC2)cc1,inactive: -9.14%
20,O=C(Nc1ccc(-c2nc3cc(NC(=O)c4ccccc4Cl)ccc3o2)cc1)c1ccccc1Cl,inactive: -1.03%
21,COc1ccc(Nc2c3c(nc4ccc(NC(=O)/C=C/c5cc(OC)c(OC)c(OC)c5)cc24)CCCC3)cc1OC,inactive: -10.1%

row,Structure (SMILES),activation
1,N#Cc1ccc(-c2cccs2)nc1SCc1c(F)cccc1Cl,inactive: 4.41%
2,COc1ccc(N(CC(=O)NCc2ccc(F)cc2)S(=O)(=O)c2c(C)noc2C)cc1,inactive: -5.38%
3,COc1ccccc1CNC(=O)Cc1c(C)c2c(cc(C)c3c(C)coc32)oc1=O,inactive: -45.8%
4,CN(C)c1ccc(CN(CC2CCCO2)C(=O)COc2ccccc2Cl)cc1 (stereo not drawn),inactive: -15.7%
5,Cc1ccccc1C(=O)N(Cc1ccc(N(C)C)cc1)Cc1ccco1,inactive: -30.6%
6,COc1ccc(OC)c(-c2nc3c(C#N)c[nH]n3c2NC2CCCCC2)c1,inactive: -31.5%
7,CCCN(c1ccc(C(C)C)cc1)S(=O)(=O)c1ccc2c(c1)CCN2C(=O)CC,inactive: 15.7%
8,CCC(CC)C(=O)Nc1cc(-c2cccc(C)c2)nn1-c1ccccc1,inactive: -32.8%
9,COc1cccc(CNC(=O)C2CCN(C(=O)N3CCOc4ccc(Cl)cc43)CC2)c1OC,inactive: -4.28%
10,COc1ccc(Cl)cc1NC(=O)c1cc(C)nc2c1c(C)nn2-c1ccccc1,inactive: -9.8%
11,O=c1c2sc3ccccc3c2n(Cc2ccccc2F)c(=O)n1Cc1ccccc1,inactive: -2.44%
12,CC1=C(C(=O)Nc2ccccc2)C(c2cccnc2)n2nc(SCc3ccccc3F)nc2N1 (stereo not drawn),inactive: -2.28%
13,O=c1c2cnn(-c3ccc(Cl)cc3)c2ncn1Cc1ccc(Cl)cc1Cl,inactive: -9.2%
14,Cc1nc2c(C(=O)NCc3ccccc3)cnn2c(C)c1Cc1ccc(F)cc1,inactive: -12.7%
15,Cc1ccc(Cn2c(=O)n(Cc3ccco3)c(=O)c3sc4ccccc4c32)cc1,inactive: -10.8%
16,CCCCC(=O)Nc1cc(C)c(O)c(-c2nc3ncccc3o2)c1,inactive: -7.79%
17,Cc1cccc(C(=O)Nc2cc3c(cc2N2CCCCC2)n(C)c(=O)c(=O)n3C)c1,inactive: 4.1%
18,CC(=O)N1CCC2(CC1)OC(=O)C(C)=C2C(=O)Nc1cccc(Cl)c1C,inactive: -12%
19,O=C(CC1N=C2c3ccccc3N=C(SCc3ccccc3F)N2C1=O)NCCc1ccccc1 (stereo not drawn),inactive: 33.9%
20,Cc1ccc(Cl)cc1Nc1nc2ccccc2c2nncn12,inactive: -9.93%
